# Source: PubChem BioAssay AID1347077 (National Center for Advancing Translational Sciences (NCATS), 2019)
# In all, about 44,000 compounds went through this assay and fewer than 10 were called active. Inconclusive results, whose numbers are uncertain, are shown with a selection of clear calls. The call rests on the fitted dose curve; in most records, active means well fitted activation curve with a large enough effect; inconclusive means small, poorly fitted or top-dose-only effect, or another doubt; inactive means no such curve, though single readings can be large or run the other way. Potencies of inconclusive entries are left out as doubtful fits.
# Molecular target: Beta-2 adrenergic receptor (Homo sapiens) (UniProt P07550)
# Assay: qHTS assay of beta-arrestin-biased ligands of beta2-adrenergic receptor: NCGC Sytravon Library Screen
# Settings: HTLA Tango cells, beta-arrestin recruitment, luciferase luminescence, 18 h; series mostly up to 46.1 µM
# From the text: The concept of biased agonism is an emerging concept of molecular pharmacology which proposes that seven transmembrane receptors (7TMRs) or G protein-coupled receptors (GPCRs), exist in multiple signaling conformations and complexes and that ligands (either agonists or antagonists) can induce signaling biased responses for distinct signal transduction cascades. […] Furthermore, accumulating evidence over the last decade has drawn attention to a novel function of beta-arrestins as signal transducers that scaffold various signaling molecules upon activation of 7TMRs. […] This beta-arrestin-biased signaling presumably leads to distinct physiological outcomes from those by G protein activation. Additionally, the active receptor conformations which prefer on this beta-arrestin signaling are likely different from those activating G protein signaling. […] The goal of this screening project will be to discover and optimize novel beta-arrestin-biased ligands for beta2-AR signaling. A luminescent cell-based assay for beta2-AR-mediated agonism, known as the Tango assay, has been validated in which ligand binding of a recombinant beta2-AR and subsequent recruitment of a recombinant beta-arrestin lead to the release of the transcriptional activator tTA, which upregulates transcription of a tTA-responsive luciferase gene. […] Compounds from the NCGC Sytravon Library collection were screened as a concentration-titration series that ranged from 46 microM to 0.6 nM. NIH Molecular Libraries Probe Production Network [MLPCN] NIH Chemical Genomics Center [NCGC] MLPCN Grant: Fast-track/HHSN271700800025C PI: Bryan Roth and Bob Lefkowitz
# Tango cells were dispensed into white, solid, tissue-culture-treated 1536-well plates at 1500 cells/well in DMEM, containing 1% fetal bovine serum (FBS). Then, 23 nL of compounds or DMSO were delivered to each well using a pin tool. Plates were incubated at 37 degrees C, 5% CO2 for 18 hr. Then 2.5 uL luminescent substrate mix (in-house prepared: 150 mM Tris-Cl, pH 7.6, 3 mM MgCl2, 1% Triton X-100, 5 mM DTT, 0.5 mM CoA, 0.15 mM ATP, 0.44 mM D-luciferin, final concentrations) was added to each well. Plates were then incubated for 15 minutes at room temperature, and subsequently measured on a ViewLux plate reader for luminescent signal using a clear filter with a 10 second exposure and 2x binning. The %Activity was determined from the corrected luminescence values. […] Concentration-response curves were fitted to the signals arising from the resulting luminescence. The concentration-effect curves were then classified based on curve quality (r2), response magnitude and degree of measured activity, and compounds were subsequently categorized based on their curve class.
# Potency means the concentration at half of the fitted maximal effect; tags describe the fitted curve by direction and shape.
# Chain of UniProt P07550 (P07550 whole entry, looked up): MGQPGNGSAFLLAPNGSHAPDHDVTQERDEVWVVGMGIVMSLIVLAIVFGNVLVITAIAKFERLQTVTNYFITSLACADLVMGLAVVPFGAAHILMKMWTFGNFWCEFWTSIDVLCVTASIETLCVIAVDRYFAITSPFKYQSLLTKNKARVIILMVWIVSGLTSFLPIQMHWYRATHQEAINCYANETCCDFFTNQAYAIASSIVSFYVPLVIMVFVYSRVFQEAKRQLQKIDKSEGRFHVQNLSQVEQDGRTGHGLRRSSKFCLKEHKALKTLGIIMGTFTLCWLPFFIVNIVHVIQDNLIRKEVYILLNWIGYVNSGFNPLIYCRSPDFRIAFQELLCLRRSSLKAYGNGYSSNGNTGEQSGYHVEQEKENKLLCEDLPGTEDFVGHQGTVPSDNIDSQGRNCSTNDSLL
row,Structure (SMILES),Potency
1,Cc1ccc(-n2c(/C=C/c3cccs3)nc3ccccc3c2=O)cc1C,"inconclusive [activator, single point]"
2,CCc1ccc(-n2nc(C)c3c2NC(=O)CSC3c2ccc(OC)cc2OC)cc1 (stereo not drawn),inactive
3,N#Cc1cc2c(nc1SCC(=O)Nc1cccc(F)c1)C1CCN2CC1,"inconclusive [activator, partial curve, poor fit]"
4,COc1ccccc1-n1c(/C=C/c2ccccc2)nc2ccccc2c1=O,"inconclusive [activator, partial curve, poor fit]"
5,COc1ccc(OC)c(CCNCc2c(C(=O)O)c(C)n(Cc3ccc(F)cc3Cl)c2C)c1,"inconclusive [activator, single point]"
6,Cc1ccc(-n2c(/C=C/c3ccc(Br)s3)nc3ccccc3c2=O)cc1C,"inconclusive [activator, full curve]"
7,Cc1cc(-n2c(/C=C/c3cccs3)nc3ccccc3c2=O)ccc1Br,"inconclusive [activator, partial curve, poor fit]"
8,CC(=O)NS(=O)(=O)c1ccc(NC(=O)c2cccn(Cc3ccc(Cl)cc3)c2=O)cc1,"inconclusive [activator, partial curve, poor fit]"
